Experimental findings from article PMC4336329 (PLoS ONE, 2015) are described below.

Hit rate of the full screen: of about 310,000 compounds, about 14,000 (4.5%) showed an effect of 50% or more. Effects have a minus sign here. Some of the results follow.
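Note: peak tail current of the secondary pulse compared with the same well before compound.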

Chain of human ether-à-go-go-related gene (hERG) potassium channel (Q12809 whole entry, looked up): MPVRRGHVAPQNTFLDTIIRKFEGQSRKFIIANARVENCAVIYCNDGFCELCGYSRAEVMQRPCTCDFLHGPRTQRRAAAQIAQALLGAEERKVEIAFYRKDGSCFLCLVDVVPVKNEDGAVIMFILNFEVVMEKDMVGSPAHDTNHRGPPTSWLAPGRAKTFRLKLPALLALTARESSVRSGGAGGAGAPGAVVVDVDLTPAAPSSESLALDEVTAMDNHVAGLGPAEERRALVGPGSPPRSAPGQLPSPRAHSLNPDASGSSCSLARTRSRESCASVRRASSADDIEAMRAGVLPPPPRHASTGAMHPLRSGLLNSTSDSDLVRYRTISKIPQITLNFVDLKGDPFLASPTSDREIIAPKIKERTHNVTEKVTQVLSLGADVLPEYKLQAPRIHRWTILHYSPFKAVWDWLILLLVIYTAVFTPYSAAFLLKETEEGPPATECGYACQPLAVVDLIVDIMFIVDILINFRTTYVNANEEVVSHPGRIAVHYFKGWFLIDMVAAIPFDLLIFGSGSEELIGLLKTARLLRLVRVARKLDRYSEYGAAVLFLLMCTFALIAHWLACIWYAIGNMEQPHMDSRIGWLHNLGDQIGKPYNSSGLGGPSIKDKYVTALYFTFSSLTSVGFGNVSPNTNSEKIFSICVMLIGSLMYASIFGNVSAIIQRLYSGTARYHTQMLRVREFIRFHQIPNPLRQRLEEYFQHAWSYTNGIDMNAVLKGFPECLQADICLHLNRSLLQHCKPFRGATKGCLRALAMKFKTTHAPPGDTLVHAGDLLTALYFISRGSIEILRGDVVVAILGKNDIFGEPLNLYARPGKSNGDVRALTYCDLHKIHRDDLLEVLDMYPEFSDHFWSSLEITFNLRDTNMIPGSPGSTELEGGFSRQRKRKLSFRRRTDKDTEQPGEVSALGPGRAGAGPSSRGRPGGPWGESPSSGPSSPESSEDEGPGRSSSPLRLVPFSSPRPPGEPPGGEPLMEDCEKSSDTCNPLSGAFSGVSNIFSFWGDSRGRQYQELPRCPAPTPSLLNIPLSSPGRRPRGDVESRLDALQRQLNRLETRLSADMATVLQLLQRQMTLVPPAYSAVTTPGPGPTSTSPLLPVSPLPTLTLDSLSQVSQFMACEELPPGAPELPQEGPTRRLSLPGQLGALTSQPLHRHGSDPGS

This assay addresses human ether-à-go-go-related gene (hERG) potassium channel (human, UniProt Q12809). The experiment in a line: primary screen, population patch clamp on CHO cells stably expressing hERG.
As for `COc1ccc(-c2csc(N(Cc3ccco3)C(=O)c3cccs3)n2)cc1`, the “hERG current change (%, negative = inhibition) at 10uM” value is listed as -3.17%. Next, `CCOC(=O)C1CCN(C(=O)CCn2c(=O)[nH]c3ccsc3c2=O)CC1`: -2.41%; `COc1ccc(/C=N/NC(=O)c2cccnc2)cc1CN1CCOCC1`: 13.6%. Take `C/C(=N\NC(=O)Cn1cc([N+](=O)[O-])cn1)c1ccc(O)cc1`: the “hERG current change (%, negative = inhibition) at 10uM” value was -5.56%. Consider `CNc1nnc(C(F)(F)F)s1`, for which the “hERG current change (%, negative = inhibition) at 10uM” value is on record as 9.38%. The same measure for `CCOC(=O)C1=C(C)Nc2ccc(C)cc2S1`: 11.3%; for `CC(C)N1CCN(Cc2ccc3nsnc3c2)CC1CCO` (centres unmarked): 8.66%. As to `CCOC(=O)CNC(=O)Cn1cnc2sc(C)c(S(=O)(=O)N3CCOCC3)c2c1=O`, the “hERG current change (%, negative = inhibition) at 10uM” value came to 16.4%.

As for `Cc1ccc2c(c1)N(CC(=O)NCCCN1CCCCC1C)C(=O)c1cccnc1O2` (centres unmarked), the “hERG current change (%, negative = inhibition) at 10uM” value is 13.7%. As to `O=C(NCc1ccc2c(c1)OCO2)C1CCN(C(=O)Nc2ccc(Cl)cc2)CC1`, the “hERG current change (%, negative = inhibition) at 10uM” value was -28.6%. For `C#CCOCCOCCOCCNc1nc(N2CCN(C(=O)[C@H]([C@@H](C)CC)n3cc([C@@H](N)Cc4ccc(O)cc4)nn3)CC2)nc(N2CCN(C(=O)[C@H](Cc3cc4ccccc4[nH]3)n3cc([C@@H](N)C(C)CC)nn3)CC2)n1.Cl` (some centres unmarked), the “hERG current change (%, negative = inhibition) at 10uM” value is on record as 3.33%. As for `O=C(Nc1ccccc1Oc1ccccc1)C1CCCC1`, the “hERG current change (%, negative = inhibition) at 10uM” value came out at 6.32%. Consider `CS(=O)(=O)N(Cc1ccccc1)c1ccccn1`, for which the “hERG current change (%, negative = inhibition) at 10uM” value turned out to be 21.1%. On to `COc1ccc(CCNC(=O)C2CCC(CNc3c(N4CCCC4)c(=O)c3=O)CC2)cc1OC` (centres unmarked), for which the “hERG current change (%, negative = inhibition) at 10uM” value was 9.2%. Consider `C/C(CC(=O)Nc1ccc(Cl)cc1C(F)(F)F)=N\NC(=O)c1cccs1`, for which the “hERG current change (%, negative = inhibition) at 10uM” value was -10.7%. As for `COc1cccc(/C=N/NC(=O)c2c(C)nc3ccc(Cl)cn23)c1OC`, the “hERG current change (%, negative = inhibition) at 10uM” value is recorded as 26.2%. For the molecule `COc1ccc(-n2c(C)cc(/C=N/Nc3nc(N4CCOCC4)nc(N4CCOCC4)n3)c2C)cc1`, the “hERG current change (%, negative = inhibition) at 10uM” value was -7.03%.

For `N#Cc1ccc(-c2cn(-c3ccccc3)c3[n+]2CCCS3)cc1.[Br-]`, the “hERG current change (%, negative = inhibition) at 10uM” value was 16.3%. For the molecule `CCCCN(C1CCS(=O)(=O)C1)S(=O)(=O)c1cccs1` (centres unmarked), the “hERG current change (%, negative = inhibition) at 10uM” value was -7.11%. Next, `c1ccc2c(CNCCN3CCOCC3)cccc2c1`: -4.74%; `COC(=O)[C@H](CCSC)NC(=O)NCCc1ccccc1F`: 15.4%. On to `COc1ccc(NC2CCCN(C(=O)CN3CCOC3=O)C2)cc1OC` (centres unmarked), for which the “hERG current change (%, negative = inhibition) at 10uM” value was 9.01%. On to `COc1cc(C2=NOC(C(=O)N3CCCCCC3)C2)cc(OC)c1OC` (centres unmarked), for which the “hERG current change (%, negative = inhibition) at 10uM” value came out at 3.06%. Next, `O=C(NCC1CCCO1)c1cncc(Br)c1` (centres unmarked): 24.3%; `COc1cc(C(=O)Nc2nc(-c3cc(C)ccc3C)c(C)s2)ccc1OCC(=O)Nc1ccc(F)cc1`: 12.4%. Take `Cc1ccc(C(=O)C2(C)N(O)C(C)C(c3cccs3)=[N+]2[O-])cc1` (centres unmarked): the “hERG current change (%, negative = inhibition) at 10uM” value turned out to be 2.14%. With `CC(Sc1nnc(N)s1)C(=O)Nc1nccs1` (centres unmarked), the “hERG current change (%, negative = inhibition) at 10uM” value is recorded as 17.8%. Regarding `CCCN1CCN(C(=O)CN2C(=O)COc3ccc(S(=O)(=O)N(CC)CC)cc32)CC1`, the “hERG current change (%, negative = inhibition) at 10uM” value came out at 4.88%. Take `Cc1nn(C)c(C)c1S(=O)(=O)NC1CCCc2ccccc21` (centres unmarked): the “hERG current change (%, negative = inhibition) at 10uM” value is -5.78%.

On to `Cn1cc(C(=O)N2CCCCC2)c(=O)c2cc(S(=O)(=O)N3CCCC3)ccc21`, for which the “hERG current change (%, negative = inhibition) at 10uM” value was 11.5%.

As for `COc1ccc(-c2oc3ncnc(NCCCO)c3c2-c2ccc(OC)cc2)cc1`, the “hERG current change (%, negative = inhibition) at 10uM” value was 4.27%. Next, `O=C(O)C1CC=CCC1C(=O)NCc1ccccc1` (centres unmarked): 0.486%. In the case of `c1coc(-c2nc(-c3ccco3)c(-c3ccco3)nc2-c2ccco2)c1`, the “hERG current change (%, negative = inhibition) at 10uM” value is given as -5.1%.

With `COc1ccc(C(=O)C2CCCN(Cc3ccc(C)s3)C2)c(OC)c1` (centres unmarked), the “hERG current change (%, negative = inhibition) at 10uM” value is -53.7%. Consider `CCCCN(C(=O)CSc1nnc(Nc2ccc(C)c(C)c2)s1)c1c(N)n(Cc2ccccc2)c(=O)[nH]c1=O`, for which the “hERG current change (%, negative = inhibition) at 10uM” value was -0.113%. The same measure for `CCCn1c(N)c(N(CCOC)C(=O)c2cc3c(s2)CCC(CC)C3)c(=O)[nH]c1=O` (centres unmarked): -18.7%.

`CCn1c(NC(=O)/C=C/c2ccc(F)cc2)nc2ccccc21`: the “hERG current change (%, negative = inhibition) at 10uM” value is -8.36%.

In the case of `COc1ccccc1C(=O)Nc1ccc(C)cc1C(=O)c1ccccc1`, the “hERG current change (%, negative = inhibition) at 10uM” value was determined as 4.34%. The same measure for `Cc1noc(NS(=O)(=O)c2ccc(N/C=C/C(=O)c3ccccc3)cc2)c1C`: 18.7%; for `COc1cccc(NC(=O)Nc2cc(C)on2)c1`: 24.9%; for `Cc1ccc(Cl)cc1NC(=O)COC(=O)CN1C(=O)C2CCCCC2C1=O` (centres unmarked): -7.96%.

Turning to `O=C(CSc1nnc(-c2cccs2)n1-c1ccccc1)N1CCOCC1`, the “hERG current change (%, negative = inhibition) at 10uM” value is listed as -20.2%. Turning to `O=C(COC(=O)C1CC(=O)N(Cc2ccccc2)C1)c1ccc(Br)cc1` (centres unmarked), the “hERG current change (%, negative = inhibition) at 10uM” value is -25.8%. The same measure for `C/C(=N\NC(=O)c1cccc(F)c1)c1ccc(NC(=O)Cc2ccccc2)cc1`: 11%. Consider `CCOC(=O)c1[nH]c(=O)[nH]c1CSc1ccccn1`, for which the “hERG current change (%, negative = inhibition) at 10uM” value was determined as 2.05%.

Consider `Cc1ccc(-c2ccc(C(=O)O)c(C)n2)cc1`, for which the “hERG current change (%, negative = inhibition) at 10uM” value is listed as -0.232%. The same measure for `COc1ccccc1CNS(=O)(=O)CCNC(=O)c1ccccc1`: 7.75%. The same measure for `Cc1ccc(C)c(CN2C(=O)COc3ccccc32)c1`: 14.1%; for `Cc1ccc(C2OCC3(CO)COC(c4ccc(C)cc4)N23)cc1` (centres unmarked): 6.28%. Next, `CCOc1ccc(-n2c(C)cc(/C=N/N(C)C)c2C)cc1`: 2.58%. Consider `Cc1ccccc1-n1nnnc1SCC(=O)NCC1(N2CCOCC2)CCCCC1`, for which the “hERG current change (%, negative = inhibition) at 10uM” value was -24.9%. Turning to `COc1ccc(NS(=O)(=O)c2cc(C)ccc2C)cc1`, the “hERG current change (%, negative = inhibition) at 10uM” value is -16.4%. With `CCOc1ccccc1N(CC(=O)NCc1ccccc1)C(=O)CCC(=O)Nc1cc(C)ccn1`, the “hERG current change (%, negative = inhibition) at 10uM” value was -26.6%. Next, `Cc1cc(Cl)ccc1OCCCC(=O)Nc1ccc(S(=O)(=O)Nc2ncccn2)cc1`: 7.21%.

Turning to `Cc1ccccc1COC(=O)CCCC1=NS(=O)(=O)c2ccccc2N1`, the “hERG current change (%, negative = inhibition) at 10uM” value is on record as -2.95%. Next, `Cc1ccccc1NC1=NC(=S)N(CC(N)=O)C12CCOC(C)(C)C2` (centres unmarked): -0.15%; `COC(=O)c1nn(-c2ccc(OC)cc2)c(=O)cc1O`: 16.9%.

`Cc1ccc(-n2nc(C)c3c(C)c(CCC(=O)NCc4ccco4)c(C)nc32)cc1`: the “hERG current change (%, negative = inhibition) at 10uM” value is listed as 1.02%. The same measure for `Cn1c(SCC(=O)c2ccccc2)nc2cccnc21`: 10.3%.

In the case of `CC1CC(C)CN(S(=O)(=O)N2CCCC(C(=O)NC(C)c3ccccc3)C2)C1` (centres unmarked), the “hERG current change (%, negative = inhibition) at 10uM” value is reported as 3.1%.

With `CC(=O)c1ccc(NS(=O)(=O)c2cccc(C(=O)Nc3ccccc3C(=O)O)c2)cc1`, the “hERG current change (%, negative = inhibition) at 10uM” value is given as 17.6%.

As to `O=C(CNC(=O)OCc1ccccc1)Nc1ccc(Br)cc1C(=O)c1ccccc1Cl`, the “hERG current change (%, negative = inhibition) at 10uM” value is reported as -40.5%. For the molecule `N#Cc1c(-c2ccccc2)nc(SCC(=O)Nc2ccc(OC(F)(F)Cl)cc2)[nH]c1=O`, the “hERG current change (%, negative = inhibition) at 10uM” value is reported as 28.5%. Consider `COc1cc(/C=C2\SC(c3ccc(C)cc3)=NC2=O)ccc1O`, for which the “hERG current change (%, negative = inhibition) at 10uM” value is reported as -8.45%. Take `CN(CCc1ccccc1)Cc1nc(-c2cnccn2)no1`: the “hERG current change (%, negative = inhibition) at 10uM” value is on record as 22%. In the case of `Br.N=c1n(CCN2CCCCC2)c2ccccc2n1CC(=O)c1cccc([N+](=O)[O-])c1`, the “hERG current change (%, negative = inhibition) at 10uM” value was -69%. Take `CCOC(=O)C1C(=O)OC(C)(C)C1C(CC)C(=O)c1ccccc1` (centres unmarked): the “hERG current change (%, negative = inhibition) at 10uM” value was -23.3%. As to `CCCNC(=O)c1ccccc1NC(=O)Cc1ccc(OC)c(S(=O)(=O)N2CCOCC2)c1`, the “hERG current change (%, negative = inhibition) at 10uM” value is -30.4%.

Consider `CC(=O)N/C(=C\c1ccccc1)C(=O)OCC(=O)N1CCCCCC1`, for which the “hERG current change (%, negative = inhibition) at 10uM” value is 1.94%. `COc1ccc(C(=O)Oc2cc(/C=N/NS(=O)(=O)c3ccc(C)cc3)ccc2OC)cc1`: the “hERG current change (%, negative = inhibition) at 10uM” value is on record as 5.96%. On to `COc1ccc(NC(=S)N(CCO)Cc2ccccc2)cc1`, for which the “hERG current change (%, negative = inhibition) at 10uM” value is 2.34%.

`CC(C)C(NC(=O)c1ccc(F)cc1)C(=O)N1CCOCC1` (centres unmarked): the “hERG current change (%, negative = inhibition) at 10uM” value is 0.564%.

Turning to `O=C(c1ccccc1Cl)N1CCCC(c2nc3c(nnn3Cc3ccccc3)c(=O)[nH]2)C1` (centres unmarked), the “hERG current change (%, negative = inhibition) at 10uM” value is -34.6%. Next, `CCOc1ccccc1C(=O)N(Cc1ccco1)C1CCS(=O)(=O)C1` (centres unmarked): 0.265%. For `O=C(c1ccco1)N1CCCC(c2nc3c(nnn3Cc3ccc(F)cc3)c(=O)[nH]2)C1` (centres unmarked), the “hERG current change (%, negative = inhibition) at 10uM” value was -14.5%. The same measure for `Cc1cc2oc(C(=O)Nc3nonc3C)c(C)c2cc1C`: 20.6%; for `COc1ccc(CN2CCN(S(=O)(=O)c3ccc(NC(C)=O)cc3)CC2)cc1.O=C(O)C(=O)O`: -29.4%. For `Cn1c(=O)c2c(SCC(=O)NCCc3ccccc3)nc(C3CC3)nc2n(C)c1=O`, the “hERG current change (%, negative = inhibition) at 10uM” value was 11.3%. The same measure for `Cc1ccc(-c2ccccc2NC(=O)CCl)o1`: 1.84%; for `COc1ccc(N2CCN(C(=O)C34CCC(C)(C(=O)C3)C4(C)C)CC2)cc1` (centres unmarked): -0.453%. On to `COc1cccc(-c2nc(-c3ccc(Br)o3)no2)c1`, for which the “hERG current change (%, negative = inhibition) at 10uM” value is 4.28%.

Take `CCN(CC)CCCNC(=O)CN1C(=O)CSc2ccc(S(=O)(=O)N3CCOCC3)cc21`: the “hERG current change (%, negative = inhibition) at 10uM” value amounted to 37.1%. Take `CCCS(=O)(=O)N1CCN=C1SCc1cccc(F)c1`: the “hERG current change (%, negative = inhibition) at 10uM” value is on record as 6.31%. Regarding `COc1ccccc1OCc1nnc(SCC(=O)c2cc(Cl)ccc2OC)o1`, the “hERG current change (%, negative = inhibition) at 10uM” value is on record as 8.83%. For the molecule `COC(=O)c1cc(NC(=O)c2ccccc2F)cc(C(=O)OC)c1`, the “hERG current change (%, negative = inhibition) at 10uM” value is reported as 19%.

Take `Cc1nn(-c2ccccc2)c2c1C(=O)NC(=O)C(C)(C)C2`: the “hERG current change (%, negative = inhibition) at 10uM” value stood at 5.13%.
